Read counts are not given, so values of variants with three or more changes are uncertain.
B1: LINE1-full (parent)
chain: UACGUAGGUGGUUUUCCCCUGAUAGUGCUAAGGGGGCCUGGAAGUUUGGACUGGGCAGAGCUCAACACAGCGUGGCAAAGUGGCUGUGGCUAGACUGCCUCUCUGGAUUCCUCGUCACUCAGCAGGGCAUCUCUGAGAGAAAUGCC

Variants of: B1
Test: self-cleavage, relative activity (ratio to wild type); higher = more cleavage; in vitro, sequencing; the parent is a self-cleaving ribozyme

Variant | self-cleavage
UACGUAGGUGGUUUUCCCCUGAUGGUGCUAAGGGGGCCUGGAAGUUUGGACUGGGCAGAGCUCAACACAGCGUGGCGGAGUGGCUGUGGCUAGACUGCCUCUCUGGAUUCCUCGUCACUCAGCAGGGCAUCUCUGAGAGAAAUGCC | 1.15
UACGCAGGUGGUUUUCCCCUGAUAGUGCUAAGGGGGCCUGGAAGUUUGGACUGGGCAGAGCCCAACACAGCGUGGCGAAGUGGCUGUGGCUAGACUGCCUCUCUGGAUUCCUCGUCACUCAGCAGGGCAUCUCUGAGAGAAAUGCC | 0
UACGUAGGUGGUUUUCCCCUGAUAGUGCUAAGGGGGCCUGGAAGUUUGGACUGGGCAGAGCUCAACACAGCGUGGCAAAGUGCCUGUGGCUAGACUGCCUUUCUGGAUUCCUUGUCACUCAGCAGGGCAUCUCUGAGAGAAAUGCC | 1.02
UACGUAGGUGGUUUUCCCCGGAUAGUGCUAAGGGGGCCUGGAAGUUUAGACUGGGCAGAGCUCAACACAGCGUGGCAAAGUGGCUGUGGCUAGACUGCCUCUCUGGAUUCCUCGUCACUCGGCAGGGCAUCCCUGAGAGAAAUGCC | 1.98
UACGUAGGUGGUUUUCUCCUGAUAGUGCUAAGGGGGCCUGGAAGUUUGGACUGGGCAGAGCUCAACACAGCGUGGCAAAGUGGCUGCGGCUAGACUGCCUCUCUGGAUUCCUCGUCACUCAGCGGGGCAUCUCUGAGAGAAAUGCC | 0
UACGUAGGUGGUUUUCCCCUGAUAGUGCUAAGGGGGCCUGGAAGUUCGGACUGGGCGGAGCUCAACACAGCGUGGCAAAGUGGCUGUGGCUAGACUGCCUCUCUGGAUUCCUCGUCACUCAGCAGGGCGUCUCUGAGAGAAAUGCC | 0.42
UACGUAGGUGGUUUUCCCCUGAUAGCGCUAAGGGGGCCUGGGAGUUUGGACUGGGCAGAGCUCGACACAGCGUGGCAAAGUGGCUGUGGCUAGACUGCCUCUCUGGAUUCCUCGUCACUCAGCAGGGCAUCUCUGAGAGAGAUGCC | 0.35
UACGUAGGUGGUUUUCCCCUGGCAGUGCUAAGGGGGCCUGGAAGUUUGGACUGGGCAGAGCUCAACACAGCGUGGCAAAGUGGCUGUGGCUAGACUGCCUCUCUGGAUUCCUCGACACUCAGCAGGGCAUCCCUGAGAGAAAUGCC | 1.58
UACGUAGGUGGGUUUCCCCUGAUAGCGCUAAGGGGGCCAGGAAGUUUGGUCUGGGCAGAGCUCAACACAGCGUGGCAAAGUGGCUGUGGCUAGACUGCCUCUCUGGAUUCCUCGUCACUCAGCAGGGCAUCUCUGAGAGAAAUGCC | 0.74
UACGUAGGUGGUUUUCCCCUGAUAGCGCUAAGGGGGCCUGGAAGUUUGGACUGGGCAGAGCUCAGCACAGCGUGGCAAAGUGGCUGUGGCUAGACUGCCUCUCUGGAUUCCUCGUCACUCAGCAGGGCACCUCUGAGAGAAAUGCC | 0.29
UACGUAGGUGGUUUUCCCCUGAUAGUGCUAAGGGGGCCAGGAAGUUUGGACUGGGCAGAGCUCAACACAGCGUGGCAAAGUGGCUGUGGCUAGACUGCCUCUCUGGAUCCCUCGUAACUCAGCAGGGCAUCUCUGAGAGAAAUGCC | 0.74
UACGUAGGUGGCUUCCCCCUGAUAGUGCUAAGGGGGCCUGGAAGUUUGGACUGGGCAGAGCCCAACACAGCGUGGCAAAGUGGCUGUGGCUAGACUGCCUCUCUGGAUUCCUCGUCACUCAGCAGGGCAUCUCUGAGAGAAAUGCC | 0.12
UACGUAGGUGGUUUUCCCCUGAUAGUGCUAAGGGGGCCCGGAAGUUUGGACUGGGCAGAGCUCAACACAGCGUGGCUGAGUGGCUGUGGCUAGACUGCCUCUCUGGAUUCCUCGUCACUCAGCAGGGCAUCUCUGAGAGAAAUGCC | 0.72
UACGUAGGUGGUUUUCCCCUGAUAGUGCUAAGGGGGCCUGGAAGUUUGGACUGGGCGGAGCUCAACACAGCGAGGCAAAGUGGCUGUGGCUAGACUGCCUCCCUGGAUUCCUCGUCACUCAGCAGGGCAUCUCUGAGAGAAGUGCC | 0.59
UACGCAGGUGGUUUUCCCCUGAUAGUGCUAAGGGGGCCUGGAAGUUUGGACUGGGCAGAGCUCAACCCAGCGUGGCAAAGUGGCUGUGGCUAGACUGCCUCUCUGGAUUCCUCGUCACUCAGCAGGGCAUCUCUGUGAGAAAUGCC | 0
UACGUAGGUGGCUUUCCCCUGAUAGUGCUAAGUGGGCCCGGAAGUUUGGACUGGGCAGAGCCCAACACAGCGUGGCAAAGUGGCUGUGGCUAGACUGCCUCUCUGGAUACCUCGUCACUCAGCAGGGCAUCUCUGAGAGAGAUGCC | 0.05
AACGUAGGUGGUUUUCCCCUAAUAGUGCUAAGGGGGCCUGGAAGUUUGGACUGGGCAGAGCUCAACACAGCGUGGCAAAGUGGCCGUGGCUAGACUGCCUCUCUGGAUACCUCGUCACUCAGCAUGGCAUCUCUGAGAGAAGUGCC | 0
UACGUAGGUGGUUUUCCCCUGAUAGUGCUAAGGGGGCCUGGAAGUUUGGACUGGGCAGAGCUCAACACAGCGUGGCAAAGUGGCUGUGGCUAGACUGCCUCUCUGGAUUCCUCGUCACUCGGCAGGGCAUCUCUGAGGGUAAUGCC | 2.51
UACGUAGGUGGUUUUCCCCUGAUAGUGCUAAGGGGGCCUGGAAGUUUGGACUGGGCAGAGCUCAACACAGCGUGGCAUAGUGGCUGCGGCUAGACCGCCUCUCUGGAUUCCUCGUCACUCAGCAGGGCACCUCUGAGAGAAAUGCC | 0
UACGUAGGUGGUUCUCCCCUGAUAGUGCUAAGGGGGCCUGGAAGUUUGGACUGGGCAGAGCUCUACACAGCGUGGCAAAGUGGCUGUGGCUAGACUGCCUCUCUGGGUUCCUCGUCACUCAGCAGGGUAUCUCUGAGAGAAACGCC | 0.48

Variant | self-cleavage
UACGUAGGUGGUUUUCCCCUGAUAGUGCUAAGGGGGCCUGGAAGUUUGGACUGGGCAGAGCUCACCACAGCGUGGCAAAGUGGUUGUGGCUAGACUGCCUCCCUGGGUUCCUCGUCACUAAGCAGGGCAUCUCUGUGAGAAAUGCC | 0.02
UACGUAGGUGGUUUUCCCCAGAUAGUGCUAAGGGGGCCUGGAAGUUUGGACUGGGCAGAGCUCAACACAGCGUGGCAAAGUGGCAGUGGCUAGGCUGCCUCUCUGGAUUCCUCGUCACUCAGCAGGGCAUCCCUGAGAGAAAUGCC | 0.1
UACGUAGGUGGUUUUCCCCUGAUAGUGCUAAGGGGGCCUGGAAGUUUGGACUGGGCAGAGCUCAACACAGCGUGGCAAAGUGGCUGUGGCUAGACUGCCUCACUGGAUUCCACGUCACUCAGCGGGGCAUCUCUGAGAGAAAUGCC | 1.32
UACGUAGGUGGUCCUCCCCUGAUAGAGCUAAGGGGGCCUGGAAGUUUGGACUGGGCAGAGCUCAACACAGCGUGGCAGAGUGGCUGUGGCUAGACUGCCUCACUGGAUUCCUCGUCACUCAGCAGGGCAUCUCUGAGUGAGAUGCC | 1.25
UACGUAGGUGGUUUUCCCCUGAUAGUGAUGAAGGGGCCUGGAAGUUUGGACUGGGCAGAGCUCAACACAGCGUGGCAAAGUGGCUGUGGCUAGACUGCCUCUCUGGAUUCCUCGUCACUCAGCAGGGCAUCUCCGAGAGAAAUGCC | 0.78
UACGUAGGUGGUUUUCCCCUGAUAGUGCCAAGGGGGCCUGGAAGUUUGGACUGGGCAGAGCUCAACACAGCGUGGCAAAGUGACUGUGGCUAGACUGCCCCUCUGGAUUCCUCGUCACUCAGCAGGGCAUCUCUGAGAGAAAUGCC | 1.61
UGCGUAGGCGGUUUUCCCCUGAUAGUGCUAAGGGGGCCUGGAAGUUUGGACUGGGCAGAGCUCAACACAGCGUGGCAAAGAGGCUGUGGCUAGACUGCCUCUCUGGAUUCCUCGUCACUCAGCAGGGCAUCUCUGAGAGAAACGCC | 1.72
UACGUAGGCGGUUUUCCCCUGAUAGCGCUAAGGGGGCCUGGAAGUUUGGACUGGGCAGAGCUCAACACAGCGUGGCAAAGUGGCUGUGGCUAGACCGCCUCUCUGGAUUCCUCGUCACUCAGCAGGGCAUCUCUGAGAGAAAUGCC | 0.6
UACGUAGGUGGUUUUCCCCUGAUAGUGCUAUGGGGGCCUGGAAGUUUGGACUGGGCAGAGCUCAACACUGCGUGGCAAAGUGGCUGUGGCUUGACUGCCUCUCUGGAUUCCUCGUCACUCAGCAGGGCAUCUCUGAGAGGAAUGCC | 0.07
UACGUAGGUGGUUUUCCCCUGAUAGUGCUAAGGGGGCCUGGAAGUUUGGGCUGGGCAGAGCUCAACACAGCGUGGCAAAGUGGCUGUGGCUAGACUGCCUCUCUGGAUCCCCCGUCACUCAGCAGGGCGUCUCUGAGAGAAAUGCC | 0
UACGUAGGUGGUUUUCCCCUGAUAGUGCUAAGGGGGCCUGGAAGUCUGGACUGGGCAGAGCUCUACACAGCGUGGCAAAGUGGCGGUGGCUAGACUGCCUCUCUGGAUUCCUCGUCACUCAGCAGGGCAUCUCUGAGAGAAAUGCC | 0.42
UACGUAGGUGGCUUUCCCCUGAUAGUGCUGAGGGGGCCUGGAAGUUUGGACUGGGCGGAGCUCAACACAGCGUGGCAAAGUGGCUGUGGCUAGACUGCCUCUCUGGAUUCCUCGUCACUCAGCAGGGCAUCUCUGAGAGAAAUGCC | 0
UACGUAGGUGGUUUUCCCCUGAUAGCGCUAAGGGGGCCUGGAAGUUUGGACUGGGCAGAGCUCAACACAGCGUGGUAAAGUGGCUGUGGCUAGACCGCCUCUCUGGAUUCCUCGUCACUCAGCAGGGCAUCCCUGAGAGAAAUGCC | 0.16
UACGAAGGUGGUUUUCCCCUGAUAGUGCUAAGGGGGCCUGGAAGUUUGGACUGGGCAGAGCUCAACACUGCGUGGCAAAGUGGCUGUGGCUAGACUGCCUCUCUGGAUUCCUCGUCACUCGGCAGGGCAUCUCUGAGAGAAAUGCC | 0.18
UACGUAGAUGGUUUUCCCCUGAUAGUGCUAAGGGGGCCUGGAGGUUUGGACUGGGCAGAGCUCAACACAGCGUGGCAAAGUGGCUGUGGCUAGACUGCCUCUCUGGAUUCCUCGUCACUCAGCAGGGCAUCCCUGAGAGACAUGCC | 1.65
UACGUAGGUGGUUUUCCCCUGAUAGUGCUAUGGGGGCCUGGAAGUUUGGACUGGGCAGAGCUUGACACAGCGUGGCAAAGUGGCUGUGGCUAGACUGCCUCUCUGGAUUCCUCGUCACUCAGCAGGGCAUCUCAGAGAGAAAUGCC | 0.11
UACGUAGGUGGUUUUCCCCUGAUAGUGCUAAGGGGGCCUGGAAGUUUGGACUGGGCAGAGCUCAUCACAGCGUGGCUAAGUGGCUGUGGCUAGGCUGCCUCUCUGGAUUCCUCGUCACUCAGCAGGGCAUCUCUGAGAGGAAUGCC | 0
UACGUAGGUGGUUUUCCCCUGAUAGUGCUAAGGGGGCCUGGAAGUUAGGACUGGGCAGAGCUCUACACAGCGUGGCAAAGUGGCUGUGGCUAGACUGCCUCUCUGGAUUCCUCGUCACUCAGCAGGGCGUCUCUGAGAGAAAUGCC | 0.45
UACGUAGGUGGUUUUCCCCUGAUAGUGCUAAGGGGGCCUGGAUGUUUGGACUGGGCAGAGCUCAACACAGCGUGGCAAAGUGGCUGUGGCUAGACUGCCCCUCUGGAUUCCUCGUCUCUCAGCAGGGCAUCUCUGAGAGAAAUGCC | 1.95
